In patent US10111437B2, “Substituted guanidines as fungicides” (Nippon Soda Co., Ltd., priority 2015, dated 2018) one finds pest or weed control data, which are given here for 45 compounds.

The structures appear in SMILES notation.

This assay concerns wheat powdery mildew fungus (Blumeria graminis f. sp. tritici). Kind of assay: Wheat powdery mildew control test (foliar spray on wheat seedlings). The note with it: in Triticum aestivum, 168 h, read-out: control value.
On to `CNCCNC(=N)c1ccc(OCCCn2ccn(CCCOc3ccc(C(=N)N)cc3)c2=N)cc1` [compound 101], for which the pest or weed control at 125 ppm is no less than 75%.
As to `N=C(N)NCCCCCCCNC(=N)NCCCCOc1ccc(C(=N)N)cc1` [compound 30, 4-[4-[[N-(7-guanidinoheptyl)carbamimidoyl]amino]butoxy]benzamidine], the pest or weed control at 125 ppm was no less than 75%.
Under `CC1(C)CN=C(c2ccc(OCCCCNC(=N)NCCCCCCCCNC(=N)N)cc2)NC1` [compound 258] stands no less than 75%.
For `N=C(NCCCOCc1ccc(C(=N)N)cc1)NCCCOc1ccc(C(=N)N)cc1` [compound 142], the pest or weed control at 125 ppm is no less than 75%.
As for `C/N=C(/NCCCOc1ccc(C(=N)N)cc1)N(C)CCCOc1ccc(C(=N)N)cc1` [compound 138], the pest or weed control at 125 ppm was no less than 75%.
Under `N=C(N)NCCCCCCNC(=N)NCCCOc1ccc(C(=N)N)cc1` [compound 134] stands no less than 75%; under `N=C(N)NCCCCCCCCNC(=N)NCCCc1ccc(C2=NCCCN2)cc1` [compound 252], no less than 75%.
Turning to `N=C(NCCCCOc1ccc(C(=N)N)cc1)NCCCCOc1ccc(C(=N)N)cc1` [compound 10, 4-[4-[[N-[4-(4-carbamimidoylphenoxy)butyl]carbamimidoyl]amino]butoxy]benzamidine], the pest or weed control at 125 ppm was no less than 75%.
Turning to `N=C(N)NCCCCCCCCNC(=N)NCCC#Cc1ccc(C(=N)N)cc1` [compound 153], the pest or weed control at 125 ppm is no less than 75%.
Regarding `N=C(N)NCCCCCCCCNC(=N)NCCOc1ccc(C(=N)N)cc1` [compound 286], the pest or weed control at 125 ppm was no less than 75%.
In the case of `N=C(N)NCCCCCCCCNC(=N)NCCCSc1ccc(C(=N)N)cc1` [compound 198], the pest or weed control at 125 ppm is no less than 75%.
As to `N=C(N)NCCCCCCCNC(=N)NCCCOc1ccc(C2=NCCCN2)cc1` [compound 190], the pest or weed control at 125 ppm is no less than 75%.
For the compound `N=C(N)c1ccc(OCCCN2CCN(CCCOc3ccc(C(=N)N)cc3)C2=N)cc1` [compound 2, 4-[3-[3-[3-(4-carbamimidoylphenoxy)propyl]-2-imino-imidazolidin-1-yl]propoxy]benzamidine], the pest or weed control at 125 ppm was no less than 75%.
On to `CNC(=N)c1ccc(OCCCn2ccn(CCCOc3ccc(C(=N)N)cc3)c2=N)cc1` [compound 122], for which the pest or weed control at 125 ppm was no less than 75%.
As for `N=C(N)NCCCCCCCn1ccn(CCCCOc2ccc(C3=NCCCN3)cc2)c1=N` [compound 208], the pest or weed control at 125 ppm was no less than 75%.
`N=C(N)c1ccc(OCCCNC(=Nc2ccccc2)NCCCOc2ccc(C(=N)N)cc2)cc1` [compound 63, 4-[3-[[N-[3-(4-carbamimidoylphenoxy)propyl]-N′-phenyl-carbamimidoyl]amino]propoxy]benzamidine]: the pest or weed control at 125 ppm is no less than 75%.
With `N=C(N)NCCCCCCCCCNC(=N)NCCOc1ccc(C2=NCCCN2)cc1` [compound 242] the figure was no less than 75%; with `N=C(N)NCCCCCNC(=N)NCCCCOc1ccc(C(=N)N)cc1` [compound 59], no less than 75%; with `N=C(N)c1ccc(OCCCn2ccn(CCCSc3ccc(C(=N)N)cc3)c2=N)cc1` [compound 173], no less than 75%.
Regarding `N=C(N)c1ccc(OCCCn2ccn(CCCOc3ccc(C(=N)N)cc3Cl)c2=N)c(Cl)c1` [compound 99], the pest or weed control at 125 ppm was no less than 75%.
Turning to `N=C(N)NCCCCCCCCn1ccn(CCOc2ccc(C3=NCCCN3)cc2)c1=N` [compound 270], the pest or weed control at 125 ppm is no less than 75%.
With `N=C(N)NCCCCCCCNC(=N)NCCCOc1ccc(C(=N)N)cc1` [compound 29, 4-[3-[[N-(7-guanidinoheptyl)carbamimidoyl]amino]propoxy]benzamidine] the figure was no less than 75%.
Consider `N=c1[nH]ccn1CCCCCCCCn1ccn(CCCOc2ccc(C3=NCCCN3)cc2)c1=N` [compound 283], for which the pest or weed control at 125 ppm was no less than 75%.
For `N=C(N)c1ccc(OCCCCN2CCN(CCCCOc3ccc(C(=N)N)cc3)C2=N)cc1` [compound 6, 4-[4-[3-[4-(4-carbamimidoylphenoxy)butyl]-2-imino-imidazolidin-1-yl]butoxy]benzamidine], the pest or weed control at 125 ppm is no less than 75%.
For `N=C(N)NCCCCCCCCNC(=N)NCCOc1ccc(C2=NCCCN2)cc1` [compound 240], the pest or weed control at 125 ppm was no less than 75%.
As to `CN(CCCOc1ccc(C(=N)N)cc1)C(=N)NCCCCCCCCNC(=N)N` [compound 128], the pest or weed control at 125 ppm was no less than 75%.
Consider `N=C(NCCCCOc1ccc(C(=N)N)cc1)NCCCc1cc2cc(C(=N)N)ccc2o1` [compound 196], for which the pest or weed control at 125 ppm is no less than 75%.
With `N=C(N)NCCCCCCCN1CCN(CCCCCCCNC(=N)N)C1=N` [compound 8, 1-[7-[3-(7-guanidinoheptyl)-2-imino-imidazolidin-1-yl]heptyl]guanidine] the figure was no less than 75%; with `CN=C(NCCCOc1ccc(C(=N)N)cc1)NCCCOc1ccc(C(=N)N)cc1` [compound 57, 4-[3-[[N-[3-(4-carbamimidoylphenoxy)propyl]-N′-methyl-carbamimidoyl]amino]propoxy]benzamidine], no less than 75%.
As to `N=C(N)NCCCCCCCCNC(=N)NCCCCOc1ccc(C2=NCC(N)CN2)cc1` (stereo not drawn) [compound 279], the pest or weed control at 125 ppm is no less than 75%.
As to `N=C(N)NCCCCCCCCNC(=N)NCCCCOc1ccc(C(=N)N)cc1` [compound 188], the pest or weed control at 125 ppm is no less than 75%.
Regarding `CNCCNC(=N)NCCCCCCCCNC(=N)NCCCCOc1ccc(C(=N)N)cc1` [compound 147], the pest or weed control at 125 ppm is no less than 75%.
For `N=C(N)NCCCCCCCNC(=N)NCCCCCCCNC(=N)N` [compound 12, 1,3-bis(7-guanidinoheptyl)guanidine], the pest or weed control at 125 ppm is no less than 75%.
As for `N=C(N)NCCCCCCCCNC(=N)NCCCOc1ccc(C(=N)N)cn1` [compound 120], the pest or weed control at 125 ppm was no less than 75%.
In the case of `N=C(N)NCCCCCCCNC(=N)NCCCOCc1ccc(C(=N)N)cc1` [compound 179], the pest or weed control at 125 ppm was no less than 75%.
Take `N=C(N)NCCCCCCCCn1ccn(CCCOc2ccc(C3=NCCCN3)cc2)c1=N` [compound 184]: the pest or weed control at 125 ppm was no less than 75%.
`N=C(N)NCCCCCCCCNC(=N)NCc1ccc(C2=NCCCN2)cc1` [compound 262]: the pest or weed control at 125 ppm was no less than 75%.
Turning to `N=C(N)c1ccc(OCCCn2ccn(CCCOc3ccc(C(=N)N)c(F)c3)c2=N)cc1F` [compound 103], the pest or weed control at 125 ppm was no less than 75%.
Turning to `N=C(N)NCCCCCCCn1ccn(CCCOc2ccc(C3=NCCCN3)cc2)c1=N` [compound 206], the pest or weed control at 125 ppm is no less than 75%.
Take `N=C(N)NCCCCCCCCNC(=N)NC/C=C/c1ccc(C(=N)N)cc1` [compound 167]: the pest or weed control at 125 ppm is no less than 75%.
As for `N=C(NCC/C=C/c1ccc(C(=N)N)cc1)NCC/C=C/c1ccc(C(=N)N)cc1` [compound 151], the pest or weed control at 125 ppm was no less than 75%.
As to `CN(CCCCCCCCNC(=N)N)C(=N)NCCCOc1ccc(C(=N)N)cc1` [compound 140], the pest or weed control at 125 ppm was no less than 75%.
As for `N=C(N)NCCCCCCCCNC(=N)NCCCCOc1ccc(C2=NCCN2)cc1` [compound 246], the pest or weed control at 125 ppm was no less than 75%.
On to `N=C(N)NCCCCCCCCNC(=N)NCCCCOc1ccc(C2=NCCCN2)cn1` [compound 275], for which the pest or weed control at 125 ppm was no less than 75%.
Regarding `N=C(N)NCCCCCCNC(=N)NCCCCOc1ccc(C(=N)N)cc1` [compound 136], the pest or weed control at 125 ppm was no less than 75%.
